# Data: article PMC9911399, “Two distinct binding modes provide the RNA-binding protein RbFox with extraordinary sequence specificity”
# Positions count from the first letter of the chain named. Some of the results follow.
# T1: RBFOX1 RRM RbFoxmut (Fox-RRM*) (Homo sapiens, UniProt Q9NWB1 109-208, R118D;E147R;N151S;E152T)
# T1 sequence: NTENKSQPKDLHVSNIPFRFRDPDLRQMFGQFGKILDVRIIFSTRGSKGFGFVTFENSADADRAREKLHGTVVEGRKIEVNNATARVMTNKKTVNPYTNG
# B1: UUCACCC (DNA:RNA)
# RNA: GGGAGACCGGAAUUCAGAUUGUCCUUCACCCUUAAAUCCCGUCGUAGCCACCA
# DNA 1: CAATCTGAATTCCGGTCTCCC
# DNA 2: TGGTGGCTACGACGGGATT
# B2: UCCCUCA (DNA:RNA)
# RNA: B1 RNA with U26C, A28C, C29U, C31A
# DNA 1: CAATCTGAATTCCGGTCTCCC
# DNA 2: TGGTGGCTACGACGGGATT
# B3: ACAGAUC (DNA:RNA)
# RNA: B1 RNA with U25A, U26C, C27A, A28G, C29A, C30U
# DNA 1: CAATCTGAATTCCGGTCTCCC
# DNA 2: TGGTGGCTACGACGGGATT
# B4: UAGAUAG (DNA:RNA)
# RNA: B1 RNA with U26A, C27G, C29U, C30A, C31G
# DNA 1: CAATCTGAATTCCGGTCTCCC
# DNA 2: TGGTGGCTACGACGGGATT
# B5: AGCGACA (DNA:RNA)
# RNA: B1 RNA with U25A, U26G, A28G, C29A, C31A
# DNA 1: CAATCTGAATTCCGGTCTCCC
# DNA 2: TGGTGGCTACGACGGGATT
# B6: GACUCGC (DNA:RNA)
# RNA: B1 RNA with U25G, U26A, A28U, C30G
# DNA 1: CAATCTGAATTCCGGTCTCCC
# DNA 2: TGGTGGCTACGACGGGATT
# B7: GCUGCUC (DNA:RNA)
# RNA: B1 RNA with U25G, U26C, C27U, A28G, C30U
# DNA 1: CAATCTGAATTCCGGTCTCCC
# DNA 2: TGGTGGCTACGACGGGATT
# B8: GCAAGGU (DNA:RNA)
# RNA: B1 RNA with U25G, U26C, C27A, C29G, C30G, C31U
# DNA 1: CAATCTGAATTCCGGTCTCCC
# DNA 2: TGGTGGCTACGACGGGATT
# B9: ACUGUAU (DNA:RNA)
# RNA: GGGAGACCGGAAUUCAGAUUGUCCACUGUAUUUAAAUCCCGUCGUAGCCACCA
# DNA 1: CAATCTGAATTCCGGTCTCCC
# DNA 2: TGGTGGCTACGACGGGATT
# B10: AACACUA (DNA:RNA)
# RNA: B1 RNA with U25A, U26A, C30U, C31A
# DNA 1: CAATCTGAATTCCGGTCTCCC
# DNA 2: TGGTGGCTACGACGGGATT
# B11: GAGGCGC (DNA:RNA)
# RNA: B1 RNA with U25G, U26A, C27G, A28G, C30G
# DNA 1: CAATCTGAATTCCGGTCTCCC
# DNA 2: TGGTGGCTACGACGGGATT
# B12: CUCGGUU (DNA:RNA)
# RNA: B9 RNA with A25C, C26U, U27C, U29G, A30U
# DNA 1: CAATCTGAATTCCGGTCTCCC
# DNA 2: TGGTGGCTACGACGGGATT
# B13: UUCGCUC (DNA:RNA)
# RNA: B1 RNA with A28G, C30U
# DNA 1: CAATCTGAATTCCGGTCTCCC
# DNA 2: TGGTGGCTACGACGGGATT
# B14: ACGCCAU (DNA:RNA)
# RNA: B9 RNA with U27G, G28C, U29C
# DNA 1: CAATCTGAATTCCGGTCTCCC
# DNA 2: TGGTGGCTACGACGGGATT
# B15: CUCGAAA (DNA:RNA)
# RNA: B9 RNA with A25C, C26U, U27C, U29A, U31A
# DNA 1: CAATCTGAATTCCGGTCTCCC
# DNA 2: TGGTGGCTACGACGGGATT
# B16: GAGGUAG (DNA:RNA)
# RNA: B9 RNA with A25G, C26A, U27G, U31G
# DNA 1: CAATCTGAATTCCGGTCTCCC
# DNA 2: TGGTGGCTACGACGGGATT
# B17: ACAUUAC (DNA:RNA)
# RNA: B9 RNA with U27A, G28U, U31C
# DNA 1: CAATCTGAATTCCGGTCTCCC
# DNA 2: TGGTGGCTACGACGGGATT
# B18: UUCUAGA (DNA:RNA)
# RNA: B1 RNA with A28U, C29A, C30G, C31A
# DNA 1: CAATCTGAATTCCGGTCTCCC
# DNA 2: TGGTGGCTACGACGGGATT
# B19: CGGCCCG (DNA:RNA)
# RNA: B1 RNA with U25C, U26G, C27G, A28C, C31G
# DNA 1: CAATCTGAATTCCGGTCTCCC
# DNA 2: TGGTGGCTACGACGGGATT
# B20: UGCGGUC (DNA:RNA)
# RNA: B1 RNA with U26G, A28G, C29G, C30U
# DNA 1: CAATCTGAATTCCGGTCTCCC
# DNA 2: TGGTGGCTACGACGGGATT
# Biological target: T1, RBFOX1 RRM RbFoxmut (Fox-RRM*)
# Assay: EMSA; HiTS-Eq, 1 nM pool, 10 min; buffer printed only for the single-RNA assays: 10 mM Tris pH 7.5, 150 mM NaCl, 3.4 mM EDTA, 0.001% NP-40, 30 C
# Settings: tags: His6 N-terminal (pET28a); label: 5' 32P
# Outline: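 Purified RbFox RRM (wild type or mutant) was equilibrated for 10 min in 50 µL with 1 nM of a 5′-radiolabelled pool of RNA with 7 randomized nucleotides, its flanks annealed to DNA oligonucleotides, across increasing protein concentrations. Free RNA was separated by 8% native PAGE, excised, reverse-transcribed, PCR-barcoded and sequenced on an Illumina HiSeq 2500. Relative association constants came from read-count changes of each variant against the control reaction, normalised to the cognate motif.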
row,Binder,binding signal
1,B1,0.0784 KA relative to UGCAUGU
2,B2,0.0963 KA relative to UGCAUGU
3,B3,0.067 KA relative to UGCAUGU
4,B4,0.0584 KA relative to UGCAUGU
5,B5,0.0755 KA relative to UGCAUGU
6,B6,0.0909 KA relative to UGCAUGU
7,B7,0.0607 KA relative to UGCAUGU
8,B8,0.0777 KA relative to UGCAUGU
9,B9,0.159 KA relative to UGCAUGU
10,B10,0.0893 KA relative to UGCAUGU
11,B11,0.112 KA relative to UGCAUGU
12,B12,0.0952 KA relative to UGCAUGU
13,B13,0.0629 KA relative to UGCAUGU
14,B14,0.0658 KA relative to UGCAUGU
15,B15,0.0863 KA relative to UGCAUGU
16,B16,0.151 KA relative to UGCAUGU
17,B17,0.0999 KA relative to UGCAUGU
18,B18,0.0984 KA relative to UGCAUGU
19,B19,0.12 KA relative to UGCAUGU
20,B20,0.197 KA relative to UGCAUGU
